From ChEMBL document CHEMBL4888484, “Replenishing the malaria drug discovery pipeline: Screening and hit evaluation of the MMV Hit Generation Library 1 (HGL1) against asexual blood stage Plasmodium falciparum ,using a nano luciferase reporter read-out” (2022) come the findings set out here.

Molecules are shown by their SMILES. Screen size: about 150,000 compounds; about 540 (0.36%) showed an effect of 50% or more. The list shows a part of the results.

The test system of the experiment is Plasmodium falciparum. In words: Primary screen in NF54 nanoGlo assay, in single point, at 2uM, 72h; a lower Z score goes with more inhibition. It is filed as functional, Erythrocyte. The settings on record: timepoint 72 hour.
The % Inhibition is the change of the read-out against control, counted positive when it falls. In the case of `COCCN1[C@H](C)CN(CCc2ccc(F)c(F)c2)C[C@@H]1C`, the “% Inhibition” value is listed as -5% and the Z score is listed as 0.64.

With `CC1CCCC(NC(=O)C2N(CCN3CCOCC3)C(=O)[C@H]3C(C(=O)Nc4cc(Cl)cc(Cl)c4)[C@H]4C=C[C@@]23O4)C1C` (stereo partly drawn), the “% Inhibition” value is given as 0% and the Z score is listed as 0.02.

Turning to `Cc1ncnc(N2CCC(CNC(=O)c3ccco3)CC2)c1C`, the “% Inhibition” value is on record as -11% and the Z score is recorded as 1.06.

`Oc1cccc(CN(C[C@H](O)C(F)(F)F)[C@H]2CC[C@H](O)CC2)c1`: the “% Inhibition” value is on record as -13% and the Z score amounted to 2.42.

Regarding `CCNC(=O)c1ccc(C)c(NC(=O)c2ccc(N3CCN(C)CC3)cc2)c1`, the “% Inhibition” value was -3% and the Z score came out at 0.38.

As for `CC(C)(C)OC(=O)N1CCC[C@H](NCc2ncc[nH]2)C1`, the “% Inhibition” value is 2% and the Z score is -0.3.

Take `Cc1noc(-c2cccnc2-n2ncc(C(=O)NCc3cccc(Cl)c3)c2C)n1`: the “% Inhibition” value is -13% and the Z score turned out to be 1.98.

`Cc1ccccc1N1CCC(NCc2cncn2C2CC2)CC1`: the “% Inhibition” value is -10% and the Z score was determined as 1.1.

For the molecule `Cc1ccc(C(=O)N2CCN(S(=O)(=O)C3CCCCC3)CC2)o1`, the “% Inhibition” value is reported as -11% and the Z score worked out at 2.

Take `CC(C)NC(=O)c1ccc(N2CCOC(C)(C)C2)nn1`: the “% Inhibition” value is -5% and the Z score turned out to be 0.87.

`CCC(C)(CC)NC(=O)Cc1cccc(N)c1`: the “% Inhibition” value worked out at 17% and the Z score is -2.01.

For `COc1ccc(C2CC(c3ccc(OC)cc3)n3ncnc3N2C(C)=O)cc1` (stereo not drawn), the “% Inhibition” value is -11% and the Z score is on record as 1.39.

Turning to `CN(C)C(=O)N1CCC[C@H]1C(=O)N[C@H]1CC[C@H](NC(=O)c2ccccc2)CC1`, the “% Inhibition” value is on record as -6% and the Z score worked out at 0.77.

For `Cn1c(C2CCCC2)nc2ccccc21`, the “% Inhibition” value is -5% and the Z score is reported as 0.55.

Take `Cn1nnc(CN[C@H]2CCN(c3ccc(Cl)c(F)c3)C2=O)n1`: the “% Inhibition” value is reported as -4% and the Z score is given as 0.4.

`CNC(=O)c1ccc(CN2C[C@@H]3[C@@H]4CC[C@@H](C4)[C@@H]3C2)cc1`: the “% Inhibition” value is listed as -26% and the Z score was 2.43.

Regarding `COC1CN(c2ccc(NC(=O)CC3CC3)cc2)C1`, the “% Inhibition” value is -8% and the Z score was found to be 1.27.

For `Cc1c(Cl)ccc2c1N(C(=O)c1ccc(=O)n(C)c1)CCC2`, the “% Inhibition” value is 8% and the Z score is reported as -0.83.

For the molecule `Cc1ccc(-c2n[nH]cc2CN2CCn3c(C)nnc3C2)cc1`, the “% Inhibition” value is on record as -10% and the Z score came out at 1.46.

Take `O=C(C[C@H]1CCCS(=O)(=O)C1)N1CCCc2c(F)c(F)cc(F)c21`: the “% Inhibition” value was -3% and the Z score is 0.62.

As for `C[C@@H]1CCC[C@H](C)N1Cc1nc(C2CC2)n[nH]1`, the “% Inhibition” value was -9% and the Z score came to 1.06.

`COC(=O)c1cccc(S(=O)(=O)N(C)Cc2cc[nH]n2)c1C`: the “% Inhibition” value was -9% and the Z score was determined as 1.32.

Regarding `CC(C)(C)c1cc(C#N)cc(C(C)(C)C)c1O`, the “% Inhibition” value is -13% and the Z score worked out at 1.71.

As to `CCOc1cc(CCCNC(=O)c2cc[nH]n2)ccc1OC`, the “% Inhibition” value is on record as -3% and the Z score came out at 0.32.

Regarding `Cc1cccc2nc(CN3CC[C@@]4(C3)NC(=O)N(C(C)C)C4=O)cn12`, the “% Inhibition” value is reported as -2% and the Z score came out at 0.38.

As for `COCC(C)(C)N(C)C(=O)c1cncc(-n2ccnn2)c1`, the “% Inhibition” value was -10% and the Z score is 1.91.

Consider `COc1ccc(C(=O)N2CCC(F)(C(=O)N3CCOCC3)CC2)cc1`, for which the “% Inhibition” value was -7% and the Z score worked out at 0.89.

For the molecule `CCNC(=O)CN(CC)C(=O)COc1ccc(C)c(C)c1`, the “% Inhibition” value is on record as 12% and the Z score is given as -1.43.

As to `CC(CC(=O)O)CC(=O)NC(C)c1ccccc1` (stereo not drawn), the “% Inhibition” value worked out at 0% and the Z score was found to be 0.09.

On to `CN(Cc1ccsc1)c1nc(-c2ccncc2)nc2c1CCNCC2`, for which the “% Inhibition” value is -3% and the Z score came out at 0.62.

As to `CC[N+](C)(CC)CCOc1cc(C)c2ccccc2n1`, the “% Inhibition” value stood at 46% and the Z score is listed as -7.88.

Take `Cc1cc(C)cc(CC(C)NC(=O)C2CCCN2)c1` (stereo not drawn): the “% Inhibition” value amounted to 9% and the Z score is listed as -1.3.

As to `Cc1noc(C)c1C(=O)NCc1cncc(-c2ccsc2)c1`, the “% Inhibition” value is -9% and the Z score is reported as 1.33.

On to `CCCn1ncnc1-c1cccc2c1OCC2`, for which the “% Inhibition” value is recorded as -10% and the Z score stood at 1.3.

Take `COc1ccc(S(=O)(=O)N2C[C@H](C)Oc3cc(F)ccc32)cn1`: the “% Inhibition” value is 27% and the Z score is -3.04.

For `CC(C)(C)c1cnc(CN2CCC(c3nnc4n3CCC4)CC2)o1`, the “% Inhibition” value is listed as 11% and the Z score was -1.56.

Take `Oc1cccnc1CNC1CC(c2cccc(F)c2)C1` (stereo not drawn): the “% Inhibition” value is 22% and the Z score is -2.1.

With `CC[C@H](C)Cc1nc(C2CCN(CC(N)=O)CC2)n(CC(C)(C)O)n1`, the “% Inhibition” value amounted to 1% and the Z score is -0.14.

`COCc1nc(NC2CCC(NC(=O)c3ccc(OC)cc3)CC2)c2cnn(-c3ccccc3Cl)c2n1` (stereo not drawn): the “% Inhibition” value is recorded as 10% and the Z score is recorded as -1.7.

On to `O=C1C[C@@H](c2cccs2)c2scc(-c3cccc(F)c3)c2N1`, for which the “% Inhibition” value is -5% and the Z score is 0.99.

Turning to `O=C1N(CCCOc2ccccc2)c2ccccc2NC12CCNCC2`, the “% Inhibition” value is -21% and the Z score was 1.96.

For `CCc1nc(-c2c3n(c(=O)n(CC(=O)Nc4cc(C)cc(C)c4)c2=O)CCCC3)no1`, the “% Inhibition” value is reported as -11% and the Z score is listed as 1.33.

With `CCN(C[C@H](O)c1cccc(O)c1)C(=O)Cn1ccccc1=O`, the “% Inhibition” value is reported as -10% and the Z score was 1.89.

Take `Cc1n[nH]c(C)c1-c1cc(-c2c(C)n[nH]c2C)c(C#N)c(N)n1`: the “% Inhibition” value is recorded as -5% and the Z score is recorded as 0.72.

On to `CN(C(=O)c1cc(C2CC2)no1)c1ccc(Br)cc1F`, for which the “% Inhibition” value came out at 1% and the Z score is reported as -0.2.

Take `CCn1ncc(CN2CC[C@@H]3C(=O)NCCCCCCN(Cc4ccncc4)[C@@H]3C2)c1C`: the “% Inhibition” value stood at 43% and the Z score is recorded as -5.64.

For `CCCCNC(=O)[C@@]1(C)CC1(Cl)Cl`, the “% Inhibition” value is -8% and the Z score is given as 1.31.

Turning to `O=C(CCn1cnnn1)N1CC[C@@]2(CCCN(CCc3ccccc3)C2)C1`, the “% Inhibition” value is listed as -9% and the Z score stood at 1.58.

Take `CC(C)(C(=O)N1CC[C@@]2(C1)NC(=O)NC2=O)c1ccccc1Cl`: the “% Inhibition” value is listed as -2% and the Z score was found to be 0.39.

Consider `CN1Cc2ccc(CN(C)C(=O)c3ccc(-n4cnnn4)cc3O)cc2C1`, for which the “% Inhibition” value worked out at 0% and the Z score is on record as 0.02.

Regarding `Cn1cc(-c2n[nH]c(-c3cnn(C)c3)c2Cl)cn1`, the “% Inhibition” value is recorded as -5% and the Z score is reported as 0.64.

For `CCOc1nc(-c2cccc(F)c2)n(-c2ccc(NC(=O)Cc3ccccc3)cc2)n1`, the “% Inhibition” value is recorded as -10% and the Z score worked out at 1.39.

Regarding `CN1CCN(C[C@H]2CCCN(CCS(=O)(=O)c3ccccc3)C2)CC1`, the “% Inhibition” value is given as -7% and the Z score is 0.96.

As for `CCC(C)OCC(=O)N(C)C1CCN(CC)CC1C` (stereo not drawn), the “% Inhibition” value is on record as -13% and the Z score amounted to 1.49.
